Experimental data from the supplement of paper PMC4967469.
pIC50: −log10 of the molar value. A lower IC50 marks a more sensitive line; fits outside the tested doses are given as limits. For AUC the same curve is integrated over the 256-fold range of doses and scaled to a fraction: 1 means no effect, lower means more sensitive. Where the top dose is marked as inferred, it is not printed in the source and was worked back from the curve model.

Compound: O=C1NC(=NCc2cccs2)S/C1=C\c1ccc2ncccc2c1 [RO-3306]
Test: Viability of human cancer cell lines after 72 h of drug (GDSC screen)
Conditions: top dose 5 µM; top dose inferred
Method: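 Human cancer cell lines in 384-well plates, medium with 10% serum, drug for 72 h over a 256-fold dose range (nine 2-fold or five 4-fold steps up to the top dose). Adherent lines were fixed and stained with the nucleic acid dye Syto60, suspension lines read with resazurin; signal relative to control wells, capped at 0 and 100%. One two-parameter sigmoid per drug and line, fitted in a mixed model over all curves with the slope shared within a line.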

KG-1 (acute myeloid leukaemia, suspension)
AUC: 0.987 | pIC50: < 5.30

KGN (ovary, adherent)
AUC: 0.971 | pIC50: < 5.30

KINGS-1 (glioma, adherent)
AUC: 0.971 | pIC50: < 5.30

KLE (endometrium, adherent)
AUC: 0.964 | pIC50: < 5.30

KM12 (large intestine, adherent)
AUC: 0.978 | pIC50: < 5.30

KM-H2 (Hodgkin lymphoma, suspension)
AUC: 0.989 | pIC50: < 5.30

KMH-2 (thyroid, adherent)
AUC: 0.871 | pIC50: 5.41

KMOE-2 (acute myeloid leukaemia, suspension)
AUC: 0.944 | pIC50: < 5.30

KMRC-1 (kidney, adherent)
AUC: 0.986 | pIC50: < 5.30

KMRC-20 (kidney, adherent)
AUC: 0.985 | pIC50: < 5.30

KMS-11 (myeloma, suspension)
AUC: 0.982 | pIC50: < 5.30

KNS-42 (glioma, adherent)
AUC: 0.98 | pIC50: < 5.30

KNS-62 (lung squamous cell carcinoma, adherent)
AUC: 0.968 | pIC50: < 5.30

KNS-81-FD (glioma, adherent)
AUC: 0.972 | pIC50: < 5.30

KON (head and neck, adherent)
AUC: 0.811 | pIC50: 5.59

KOPN-8 (B-cell leukaemia, suspension)
AUC: 0.99 | pIC50: < 5.30

KP-1N (pancreas, adherent)
AUC: 0.986 | pIC50: < 5.30

KP-2 (pancreas, adherent)
AUC: 0.986 | pIC50: < 5.30

KP-3 (pancreas, adherent)
AUC: 0.976 | pIC50: < 5.30

KP-N-YN (neuroblastoma, adherent)
AUC: 0.986 | pIC50: < 5.30

KS-1 (glioma, adherent)
AUC: 0.962 | pIC50: < 5.30

KU812 (chronic myeloid leukaemia, suspension)
AUC: 0.986 | pIC50: < 5.30

KU-19-19 (bladder, adherent)
AUC: 0.953 | pIC50: < 5.30

KURAMOCHI (ovary, adherent)
AUC: 0.95 | pIC50: < 5.30

KY821 (leukaemia, suspension)
AUC: 0.988 | pIC50: < 5.30

KYAE-1 (oesophagus, suspension)
AUC: 0.985 | pIC50: < 5.30

KYM-1 (rhabdomyosarcoma, adherent)
AUC: 0.95 | pIC50: < 5.30

KYSE-50 (oesophagus, adherent)
AUC: 0.986 | pIC50: < 5.30

KYSE-140 (oesophagus, adherent)
AUC: 0.961 | pIC50: < 5.30

KYSE-150 (oesophagus, adherent)
AUC: 0.979 | pIC50: < 5.30

KYSE-220 (oesophagus, adherent)
AUC: 0.983 | pIC50: < 5.30

KYSE-410 (oesophagus, adherent)
AUC: 0.941 | pIC50: < 5.30

KYSE-450 (oesophagus, adherent)
AUC: 0.974 | pIC50: < 5.30

KYSE-510 (oesophagus, adherent)
AUC: 0.958 | pIC50: < 5.30

KYSE-520 (oesophagus, adherent)
AUC: 0.91 | pIC50: < 5.30

L-363 (myeloma, suspension)
AUC: 0.984 | pIC50: < 5.30

L-428 (Hodgkin lymphoma, suspension)
AUC: 0.99 | pIC50: < 5.30

L-540 (Hodgkin lymphoma, suspension)
AUC: 0.98 | pIC50: < 5.30

L-1236 (Hodgkin lymphoma, suspension)
AUC: 0.979 | pIC50: < 5.30

LAMA-84 (chronic myeloid leukaemia, suspension)
AUC: 0.934 | pIC50: < 5.30

LAN-6 (neuroblastoma, adherent)
AUC: 0.977 | pIC50: < 5.30

LB373-MEL-D (melanoma, adherent)
AUC: 0.973 | pIC50: < 5.30

LB647-SCLC (small cell lung carcinoma, semi-adherent)
AUC: 0.968 | pIC50: < 5.30

LB771-HNC (head and neck, adherent)
AUC: 0.982 | pIC50: < 5.30

LB831-BLC (bladder, adherent)
AUC: 0.924 | pIC50: < 5.30

LB996-RCC (kidney, adherent)
AUC: 0.975 | pIC50: < 5.30

LB1047-RCC (kidney, adherent)
AUC: 0.829 | pIC50: 5.44

LB2518-MEL (melanoma, adherent)
AUC: 0.986 | pIC50: < 5.30

LC4-1 (lymphoblastic leukaemia, suspension)
AUC: 0.982 | pIC50: < 5.30

LC-1-sq (lung squamous cell carcinoma, adherent)
AUC: 0.948 | pIC50: < 5.30

LC-2-ad (lung adenocarcinoma, adherent)
AUC: 0.972 | pIC50: < 5.30

LCLC-97TM1 (large cell lung carcinoma, adherent)
AUC: 0.961 | pIC50: < 5.30

LCLC-103H (large cell lung carcinoma, adherent)
AUC: 0.977 | pIC50: < 5.30

LK-2 (lung squamous cell carcinoma, adherent)
AUC: 0.986 | pIC50: < 5.30

LN-18 (glioma, adherent)
AUC: 0.983 | pIC50: < 5.30

LN-229 (glioma, adherent)
AUC: 0.905 | pIC50: < 5.30

LN-405 (glioma, adherent)
AUC: 0.975 | pIC50: < 5.30

LNCaP-Clone-FGC (prostate, adherent)
AUC: 0.97 | pIC50: < 5.30

LNZTA3WT4 (glioma, adherent)
AUC: 0.985 | pIC50: < 5.30

LOU-NH91 (lung squamous cell carcinoma, adherent)
AUC: 0.937 | pIC50: < 5.30

LOUCY (T-cell lymphoblastic leukaemia, suspension)
AUC: 0.988 | pIC50: < 5.30

LOXIMVI (melanoma, semi-adherent)
AUC: 0.923 | pIC50: < 5.30

LP-1 (myeloma, suspension)
AUC: 0.99 | pIC50: < 5.30

LS-180 (large intestine, adherent)
AUC: 0.982 | pIC50: < 5.30

LS-411N (large intestine, adherent)
AUC: 0.981 | pIC50: < 5.30

LS-513 (large intestine, adherent)
AUC: 0.979 | pIC50: < 5.30

LS-1034 (large intestine, adherent)
AUC: 0.981 | pIC50: < 5.30

LU-65 (large cell lung carcinoma, suspension)
AUC: 0.987 | pIC50: < 5.30

LU-134-A (small cell lung carcinoma, suspension)
AUC: 0.987 | pIC50: < 5.30

LU-135 (small cell lung carcinoma, suspension)
AUC: 0.988 | pIC50: < 5.30

LU-139 (small cell lung carcinoma, suspension)
AUC: 0.971 | pIC50: < 5.30

LU-165 (small cell lung carcinoma, suspension)
AUC: 0.988 | pIC50: < 5.30

LXF-289 (lung adenocarcinoma, adherent)
AUC: 0.759 | pIC50: 5.76

LoVo (large intestine, adherent)
AUC: 0.983 | pIC50: < 5.30

M059J (glioma, adherent)
AUC: 0.985 | pIC50: < 5.30

MC116 (B-cell lymphoma, suspension)
AUC: 0.999 | pIC50: < 5.30

MC-CAR (haematopoietic neoplasm, suspension)
AUC: 0.981 | pIC50: < 5.30

MC-IXC (neuroblastoma, adherent)
AUC: 0.981 | pIC50: < 5.30

MCF7 (breast, adherent)
AUC: 0.901 | pIC50: < 5.30
